{"source": "PubChem BioAssay AID485294", "about": "(National Center for Advancing Translational Sciences (NCATS), 2010)", "note": "Screen size: about 370,000 compounds; about 150 (0.041%) were called active. Inconclusive results, whose numbers are uncertain, are shown with a selection of clear calls. Calls come from the whole dose curve; as a rule, active = well fitted inhibition curve with a large enough effect; inconclusive = small, poorly fitted or top-dose-only effect; inactive = flat fitted curve, though single readings scatter. No potency is given beside an inconclusive call; the fits are too rough. Potency is the fitted concentration of half-maximal effect; tags give direction and shape of the fitted curve."}
{"biological_target": "Beta-lactamase (Escherichia coli (strain K12)) (UniProt P00811)", "sequence (P00811 whole entry, looked up)": "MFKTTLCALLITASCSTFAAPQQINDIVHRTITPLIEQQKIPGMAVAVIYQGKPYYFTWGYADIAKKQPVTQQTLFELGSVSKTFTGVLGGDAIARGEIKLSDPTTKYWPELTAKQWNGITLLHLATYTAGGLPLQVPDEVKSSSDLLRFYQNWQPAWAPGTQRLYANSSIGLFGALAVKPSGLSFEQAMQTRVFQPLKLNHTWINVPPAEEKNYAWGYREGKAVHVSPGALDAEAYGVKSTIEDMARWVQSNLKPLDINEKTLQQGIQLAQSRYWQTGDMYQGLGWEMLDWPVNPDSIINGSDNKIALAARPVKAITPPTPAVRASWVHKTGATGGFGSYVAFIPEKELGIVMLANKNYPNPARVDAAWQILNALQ", "assay": "qHTS Inhibitors of AmpC Beta-Lactamase (assay with detergent); note: nearly all actives have a fitted effect of over 25% in size;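 for activity change, negative = inhibition: 0% = no-compound wells and -100% = no-enzyme wells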", "conditions": "AmpC hydrolysis of nitrocefin, absorbance 480 nm, 0.01% Triton; activity change, negative = inhibition: at 114 µM (top of the series)", "summary_of_the_method": "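20 mM phosphate pH 7.0 + 0.01% (detergent screen) or 0.0001% Triton X-100; 5.3 nM AmpC reagent; cpd preinc 15 min RT; nitrocefin (800 uM stock) to start; A480 q20 s × 4 min; Activity was normalised to no-enzyme and no-compound control wells.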"}
{"compound": "Cc1nn(Cc2ccc(F)cc2)c(Cl)c1/C=N/NC(=O)c1ccccc1", "activity change, negative = inhibition": "inactive: 5.49%"}
{"compound": "Cc1cccc(-c2n[nH]c([N+](=O)[O-])n2)c1", "Potency": "inconclusive [inhibitor, partial curve]"}
{"compound": "C=C(C)CN1C(=O)C(O)(CC(=O)c2ccc3c(c2)OCCO3)c2ccccc21", "note": "(configuration not stated)", "Potency": "inconclusive [inhibitor, full curve, poor fit]"}
{"compound": "CCN(C(=O)C1CCN(S(=O)(=O)c2ccc3c(c2)oc(=O)n3C)CC1)c1cccc(C)c1", "Potency": "inconclusive [inhibitor, partial curve, poor fit]"}
{"compound": "CN(C)c1ccnc(Nc2ccc(O)cc2)c1C#N", "Potency": "inconclusive [inhibitor, full curve]"}
{"compound": "Cc1cc(C)c2c(-n3cccc3)c(C(=O)NCCCN3CCCCC3)sc2n1", "activity change, negative = inhibition": "inactive: 22.9%"}
{"compound": "COc1ccc(NC(=O)Cn2cc(C#N)c3ccccc32)cc1", "Potency": "inconclusive [inhibitor, full curve, poor fit]"}
{"compound": "C=CCNC(=O)c1ccc(N(Cc2ccc(Cl)cc2)S(C)(=O)=O)cc1", "Potency": "inconclusive [inhibitor, partial curve, poor fit]"}
{"compound": "O=C(CCCCCN1C(=O)CCC1=O)Nc1ccc2c(c1)OCCO2", "Potency": "inconclusive [inhibitor, partial curve]"}
{"compound": "OC[C@H]1O[C@H](OCc2ccccc2)[C@H](O[C@@H]2OC[C@@H](O)[C@H](O)[C@H]2O)[C@@H](O)[C@@H]1O", "Potency": "inconclusive [inhibitor, partial curve]"}
{"compound": "CC(=NCc1ccc2c(c1)OCO2)c1c(O)n(C)c(=O)n(C)c1=O", "Potency": "inconclusive [inhibitor, partial curve, poor fit]"}
{"compound": "O=C(c1cn(CC(=O)N2CCCC2)c2ccccc12)C1CCCCC1", "Potency": "inconclusive [inhibitor, partial curve]"}
{"compound": "CC1CCC(N2CC(=O)N(C3CCCC3)C(c3ccc(Cl)cc3)C2=O)CC1", "note": "(configuration not stated)", "activity change, negative = inhibition": "inactive: -4.67%"}
{"compound": "O=S(=O)(/N=C(/Nc1cccc2ccccc12)c1ccccc1)c1ccc(F)cc1", "Potency": "inconclusive [inhibitor, full curve, poor fit]"}
{"compound": "CCCC(=O)Nc1ccccc1NC(=O)CN(C)S(=O)(=O)c1ccccc1", "Potency": "inconclusive [inhibitor, full curve]"}
{"compound": "O=C(Nc1ccc(OC(F)(F)F)cc1)c1cnc2n(c1=O)CCS2", "Potency": "inconclusive [inhibitor, full curve, poor fit]"}
{"compound": "O=C(Nc1ccc(F)c(F)c1)c1oc2ccccc2c1NC(=O)C1CCCO1", "note": "(configuration not stated)", "Potency": "inconclusive [inhibitor, full curve, poor fit]"}
{"compound": "COc1cc(NC(=S)NCCc2ccc(S(N)(=O)=O)cc2)c(OC)cc1Cl", "activity change, negative = inhibition": "inactive: 3.33%"}
{"compound": "Cc1ccc(NC(=O)C2COc3ccccc3O2)c(C)c1", "note": "(configuration not stated)", "Potency": "inconclusive [inhibitor, full curve, poor fit]"}
{"compound": "CCN1C(=O)c2cccc3c(NC(=O)C4CCCCC4)ccc1c23", "Potency": "inconclusive [inhibitor, full curve, poor fit]"}
{"compound": "O=C(CCc1ccccc1)OCCN1CCOCC1", "Potency": "inconclusive [inhibitor, full curve]"}
{"compound": "Cc1ccc(NC(=O)Cn2c(=O)n(CCC(=O)NCCc3ccccc3)c(=O)c3ccccc32)cc1", "activity change, negative = inhibition": "inactive: 17%"}
{"compound": "O=C(C1CCN(c2ccc(N3CCOCC3)nn2)CC1)N1CCc2ccccc2C1", "Potency": "inconclusive [inhibitor, single point]"}
{"compound": "Cc1ccc(C)c(N2CCN(CCCc3ccccc3)CC2)c1", "Potency": "inconclusive [inhibitor, full curve]"}
{"compound": "CC1Cc2ccccc2N1C(=O)COC(=O)/C=C/c1ccc(F)cc1", "note": "(configuration not stated)", "Potency": "inconclusive [inhibitor, full curve, poor fit]"}
{"compound": "CCOc1ccc(CCNC(=O)C(C)n2nc(C)n3c(cc4occc43)c2=O)cc1OCC", "note": "(configuration not stated)", "Potency": "inconclusive [inhibitor, full curve, poor fit]"}
{"compound": "CCOc1cc(C(=O)N2CCC(CC3CC(c4cccc(Br)c4)=NO3)(C(=O)NCC3CCCCC3)CC2)cc(OCC)c1OCC", "note": "(configuration not stated)", "Potency": "inconclusive [inhibitor, full curve, poor fit]"}
{"compound": "COc1cccc(-c2nnc(SCc3nc4ccccc4s3)n2C)c1", "Potency": "inconclusive [inhibitor, single point]"}
{"compound": "CC(OC(=O)CCc1cc(C(C)(C)C)c(O)c(C(C)(C)C)c1)C(=O)NC1CC1", "note": "(configuration not stated)", "activity change, negative = inhibition": "inactive: -13.8%"}
{"compound": "Cc1ccc[n+](CC(=O)c2ccc(-c3ccccc3)cc2)c1", "Potency": "inconclusive [inhibitor, partial curve, poor fit]"}
{"compound": "COc1ccc2ccccc2c1CNCCc1ccccc1", "activity change, negative = inhibition": "inactive: -12.8%"}
{"compound": "Cc1ccc(OCC(=O)Nc2cc(S(=O)(=O)N3CCCCC3)ccc2N2CCN(C)CC2)c(C)c1", "activity change, negative = inhibition": "inactive: -11.7%"}
{"compound": "Cc1ccc(-c2nnc(Nc3ccc(Cl)cc3)c3ccccc23)cc1S(=O)(=O)N1CCOCC1", "activity change, negative = inhibition": "inactive: 1.94%"}
{"compound": "COc1cc(C2C3C(=O)N(Cc4ccccc4)C(=O)C3ON2c2ccccc2)cc(OC)c1O", "note": "(configuration not stated)", "Potency": "inconclusive [inhibitor, full curve, poor fit]"}
{"compound": "Cc1ccc(CCNc2ccccc2C)cn1", "Potency": "inconclusive [inhibitor, full curve, poor fit]"}
{"compound": "Cc1[nH]c2ccccc2c1Cc1n[nH]c(=S)n1C", "activity change, negative = inhibition": "inactive: -3.04%"}
{"compound": "O=C(N/N=C/c1cn[nH]c1-c1ccccc1)c1ccco1", "activity change, negative = inhibition": "inactive: -6.29%"}
{"compound": "Cc1cccc(NCc2nnc3n2CCCCC3)c1C", "activity change, negative = inhibition": "inactive: 3.28%"}
{"compound": "CCCN1CCN(CCCNC(=O)c2ccc3c(c2)sc2nc(-c4ccc(C)cc4)cn23)CC1", "activity change, negative = inhibition": "inactive: 18.3%"}
{"compound": "O=C(OCC(=O)N1CCOCC1)c1ccc[nH]c1=O", "Potency": "inconclusive [inhibitor, partial curve, poor fit]"}
{"compound": "CCc1sc(C(=O)NNC(=O)CNC(=O)c2ccccc2F)cc1C", "Potency": "inconclusive [inhibitor, full curve, poor fit]"}
{"compound": "CC1(C)Cc2c(C#N)c(N3CCN(C(=O)c4ccco4)CC3)nc(-c3ccco3)c2CS1", "activity change, negative = inhibition": "inactive: 3.88%"}
{"compound": "CC1CCC2(CC1)NC(=O)N(NC(=O)c1cccs1)C2=O", "note": "(configuration not stated)", "Potency": "inconclusive [inhibitor, single point]"}
{"compound": "N#C/C(=C\\c1ccc(Sc2nc3ccccc3[nH]2)o1)c1ccccc1", "Potency": "inconclusive [inhibitor, full curve, poor fit]"}
{"compound": "CC(=O)Nc1c(C(=O)O)oc2ccccc12", "activity change, negative = inhibition": "inactive: -9.63%"}
{"compound": "COc1ccc(OC)c(N(CC(=O)NCCSCc2ccco2)S(=O)(=O)c2ccccc2)c1", "activity change, negative = inhibition": "inactive: 3.82%"}
{"compound": "COC(=O)NNC(=O)COc1cc(C)c(Br)cc1C(C)C", "Potency": "inconclusive [inhibitor, full curve, poor fit]"}
{"compound": "CCOC(=O)CN1CC23C=CC(O2)C(C(=O)Nc2ccc(OC)cc2OC)C3C1=O", "note": "(configuration not stated)", "Potency": "inconclusive [inhibitor, full curve, poor fit]"}
{"compound": "Cc1ccc(S(=O)(=O)Nc2cccc(C(=O)N3CCN(c4ccccc4O)CC3)c2)cc1F", "Potency": "inconclusive [inhibitor, full curve, poor fit]"}
{"compound": "CCOc1ccccc1CN1CCC(Oc2ccc(C(=O)NCc3ccccn3)cc2)CC1", "Potency": "inconclusive [inhibitor, partial curve]"}
{"compound": "CN(C)CCCNC(=S)NCc1ccc(Cl)cc1", "Potency": "inconclusive [inhibitor, single point]"}
{"compound": "CN1CCN(c2nc3c(c(=O)[nH]2)CCC3)CC1", "Potency": "inconclusive [inhibitor, full curve, poor fit]"}
{"compound": "CC(C)(C)OC(=O)N1CCC(C(=O)N[C@@H](Cc2ccccc2)C(=O)O)CC1", "Potency": "inconclusive [inhibitor, full curve, poor fit]"}
{"compound": "COC(=O)c1c(N2C(=O)CCC2=O)sc2c1CCCC2", "Potency": "inconclusive [inhibitor, full curve]"}
{"compound": "CC(=O)Cn1c(CN2CC(C)CC(C)C2)nc2c1c(=O)n(C)c(=O)n2C", "note": "(configuration not stated)", "Potency": "inconclusive [inhibitor, full curve]"}
{"compound": "CC1(C)Cc2c(C#N)c(SCCC#N)nc(N3CCOCC3)c2CS1", "Potency": "inconclusive [inhibitor, full curve]"}
{"compound": "COc1ccc(C2=Nn3c(nc4sc(C(=O)Nc5cccc(C)c5)c(C)c4c3=O)SC2)cc1", "activity change, negative = inhibition": "inactive: 25.2%"}
{"compound": "CCn1ncc([N+](=O)[O-])c1C(=O)N1CCc2ccccc2C1", "Potency": "inconclusive [inhibitor, partial curve]"}
{"compound": "CCOC(=O)c1sc(=S)n(-c2ccc(Cl)cc2)c1C", "activity change, negative = inhibition": "inactive: -14.7%"}
{"compound": "COc1ccc(CCNC(=O)c2cc(-c3ccc4c(c3)OCO4)on2)cc1OC", "Potency": "inconclusive [inhibitor, partial curve]"}
{"compound": "O=S(=O)(NCC1CCCO1)c1cnc(Cl)c(Br)c1", "note": "(configuration not stated)", "Potency": "inconclusive [inhibitor, partial curve, poor fit]"}
{"compound": "O=C(COc1ccc(S(=O)(=O)N2CCOCC2)cc1)N1CCOCC1", "activity change, negative = inhibition": "inactive: 0.949%"}
{"compound": "O=C(CSc1nc(NS(=O)(=O)c2ccccc2)cc(=O)[nH]1)Nc1ccc(Cl)cc1", "Potency": "inconclusive [inhibitor, partial curve]"}
{"compound": "Cc1ccc(OCCCn2ccnc2)c(Br)c1", "activity change, negative = inhibition": "inactive: 3.56%"}
{"compound": "Cc1ccc(S(=O)(=O)N2CCN(C(=O)COC(=O)c3ccc(Cl)nc3)CC2)c(C)c1", "Potency": "inconclusive [inhibitor, full curve, poor fit]"}
{"compound": "CCOc1ccc(NC(=O)c2cc(S(=O)(=O)NC3CCCC3)ccc2F)cc1", "activity change, negative = inhibition": "inactive: 5.19%"}
{"compound": "CCc1cccc(C)c1NC(=O)CSc1nc2ccccc2n1CC(=O)N(C)C", "Potency": "inconclusive [inhibitor, full curve, poor fit]"}
